This is one part of the list. The list includes weakly bound sequences.

The assay deals with MaxL homodimer (UniProt P61244). Kind of assay: universal protein-binding microarray (PBM). Particulars: PBS-based mixture, 10 nM His-tagged protein dimer, 2% milk, 200 ng/uL BSA, 50 ng/uL salmon testes DNA, 0.02% TX-100; detection with Alexa 488 anti-His …; high values mean tight binding; most listed sequences are background and not binding sites; double strand, one strand shown.
Sequence of UniProt P61244 (P61244 whole entry): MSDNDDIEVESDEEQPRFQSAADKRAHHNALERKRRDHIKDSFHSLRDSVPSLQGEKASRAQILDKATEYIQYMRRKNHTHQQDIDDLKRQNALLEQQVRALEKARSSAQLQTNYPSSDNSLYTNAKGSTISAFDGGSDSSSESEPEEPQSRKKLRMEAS
In the case of ACGTCACC, the binding signal (normalized occupancy) was found to be 0.0804.
Turning to GAACTACA, the binding signal (normalized occupancy) was 0.0775.
Regarding CAGTCTGG, the binding signal (normalized occupancy) came to 0.0673.
In the case of AGCTACGG it was 0.0724.
Take AAGGATCG: the binding signal (normalized occupancy) came out at 0.0776.
As for CGGTAAAG, the binding signal (normalized occupancy) is 0.0763.
For the sequence AGGCGGTA, the binding signal (normalized occupancy) amounted to 0.0713.
As for AGATGCGA, the binding signal (normalized occupancy) turned out to be 0.0739.
The same measure for CCTGCCCC: 0.0701; for AACGATTC: 0.0776; for TAGGCCAA: 0.0694.
The same measure for TTGCACAA: 0.0749.
In the case of ATCATTCA, the binding signal (normalized occupancy) was determined as 0.0816.
GTCGCAAC: the binding signal (normalized occupancy) was 0.0753.
The same measure for ACAGTGGG: 0.0738; for ACGTCTCC: 0.0769; for AGGAAGCA: 0.0832.
For CGAGAATC, the binding signal (normalized occupancy) came to 0.0777.
On to AGGACTCA, for which the binding signal (normalized occupancy) came to 0.0729.
As for CACCTCTA, the binding signal (normalized occupancy) worked out at 0.0765.
As to ACCACCCC, the binding signal (normalized occupancy) turned out to be 0.0933.
On to GCAGACAC, for which the binding signal (normalized occupancy) is 0.0738.
The same measure for ACAACTAG: 0.0713; for CTTACCCA: 0.0749.
The same measure for GGCCTGTA: 0.073.
For the sequence TAACGAAA, the binding signal (normalized occupancy) was found to be 0.0728.
In the case of CTTCTATA it was 0.0788.
As for AAAGAGAG, the binding signal (normalized occupancy) is 0.0753.
Take CAGACATA: the binding signal (normalized occupancy) was determined as 0.0825.
Take AAGCACGG: the binding signal (normalized occupancy) amounted to 0.0779.
In the case of AGGTTACT, the binding signal (normalized occupancy) worked out at 0.0732.
Turning to TCTTATCA, the binding signal (normalized occupancy) is 0.0736.
TGCGCAAA: the binding signal (normalized occupancy) was determined as 0.0708.
For the sequence ACTCGAGT, the binding signal (normalized occupancy) was 0.074.
On to GGTAAGCA, for which the binding signal (normalized occupancy) was 0.0773.
In the case of CGTAACAG it was 0.0767; in that of CCTCTGGC, 0.0664.
In the case of AAACAGGA it was 0.0726; in that of CGGTTGAA, 0.0733.
With CAAGACAG, the binding signal (normalized occupancy) is 0.0705.
AGAATCCT: the binding signal (normalized occupancy) is 0.0738.
Regarding GCCACGAA, the binding signal (normalized occupancy) came to 0.0728.
For ATGTGTTC, the binding signal (normalized occupancy) came out at 0.0899.
ATACATTG: the binding signal (normalized occupancy) stood at 0.0872.
As for ACCTAATC, the binding signal (normalized occupancy) came to 0.0736.
The same measure for ACCAAAAA: 0.0707; for CCGTGTCC: 0.0754.
AGAGCAGC: the binding signal (normalized occupancy) was found to be 0.0753.
For the sequence ATAGAATG, the binding signal (normalized occupancy) turned out to be 0.0829.
Regarding ACTTTAGA, the binding signal (normalized occupancy) was found to be 0.0757.
As for ATAAACAT, the binding signal (normalized occupancy) worked out at 0.0777.
As for GGCGAGCC, the binding signal (normalized occupancy) turned out to be 0.0663.
On to GGCTTGAA, for which the binding signal (normalized occupancy) amounted to 0.0701.
As to GTGCCCCA, the binding signal (normalized occupancy) was determined as 0.0739.
In the case of AGTCAATA it was 0.0711; in that of CGCTTAAG, 0.0676.
The same measure for GCGCAGCA: 0.0701; for CATGGGGA: 0.1.
Regarding GACTAGCC, the binding signal (normalized occupancy) was 0.0707.
The same measure for AGCCTATC: 0.074; for TCGCGCAA: 0.0752; for ACAAGCGT: 0.0815.
On to GAGCCGGA, for which the binding signal (normalized occupancy) is 0.0684.
For CAACAGGG, the binding signal (normalized occupancy) is 0.0723.
As to ACTATGGA, the binding signal (normalized occupancy) turned out to be 0.0798.
For GTGGCGTA, the binding signal (normalized occupancy) worked out at 0.0786.
On to GGTTTTTA, for which the binding signal (normalized occupancy) came to 0.0791.
As to CATCACCG, the binding signal (normalized occupancy) worked out at 0.0763.
In the case of CCGGCGGC it was 0.0646.
With TATCTACA, the binding signal (normalized occupancy) was determined as 0.0817.
In the case of GGCGGCAC, the binding signal (normalized occupancy) amounted to 0.0706.
The same measure for CGGTGGTA: 0.0825; for AGAGGGCG: 0.0704; for CGCAAAGA: 0.0733.
With AAGTTAAC, the binding signal (normalized occupancy) came to 0.0783.
Regarding AGACGTTA, the binding signal (normalized occupancy) is 0.0775.
In the case of CTCTTCGC it was 0.0753.
For the sequence GGGTTTAA, the binding signal (normalized occupancy) came out at 0.078.
Regarding CAATGGAC, the binding signal (normalized occupancy) was found to be 0.073.
As to ATAACCAA, the binding signal (normalized occupancy) amounted to 0.0794.
For the sequence ATAAAAGA, the binding signal (normalized occupancy) was found to be 0.0759.
As to ACAGCTCT, the binding signal (normalized occupancy) is 0.0692.
Consider AATACAAC, for which the binding signal (normalized occupancy) was found to be 0.0734.
Take ACAGATTA: the binding signal (normalized occupancy) worked out at 0.075.
In the case of GAATGGGA it was 0.0752.
In the case of CCAGCACA it was 0.084.
As to CTATAACC, the binding signal (normalized occupancy) amounted to 0.0895.
Turning to ATTTAAAC, the binding signal (normalized occupancy) was 0.0836.
Regarding GAGTTATC, the binding signal (normalized occupancy) came to 0.0757.
Turning to ATGTAACG, the binding signal (normalized occupancy) came out at 0.0911.
For the sequence GATAACAA, the binding signal (normalized occupancy) came to 0.0782.
The same measure for ACAGATGC: 0.0818; for CAAAACCA: 0.075.
As to CCTGCGGC, the binding signal (normalized occupancy) was 0.0694.

The record behind these values is article PMC4242493.
